# Test results reported in PubChem BioAssay AID504832 (National Center for Advancing Translational Sciences (NCATS), 2011).
# The whole screen tested about 310,000 compounds, of which about 18,000 (5.8%) were called active. The shares of active, inactive and inconclusive entries below differ from those in the screen. Calls follow the shape of the dose curve; as a rule, active = well fitted inhibition curve with a large enough effect; inconclusive = small, poorly fitted or top-dose-only effect, or another doubt; inactive = no such curve, though single readings can be large or run the other way. No potency is given beside an inconclusive call; the fits are too rough.
# Assay: Primary qHTS for delayed death inhibitors of the malarial parasite plastid, 48 hour incubation
# Details: P. falciparum luciferase growth in erythrocytes; series mostly up to 28.7 µM
# Method in brief: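 Luciferase-expressing P. falciparum in infected erythrocytes (2% hematocrit, 0.1% parasitemia final) in RPMI 1640/0.5% Albumax were exposed to compound for 48 hours at 37 C, 5% CO2; growth read as luminescence.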
# % is scaled to controls: 0 for no effect and ±100 for the full control effect; potency is read from the fitted curve at half-maximal effect; tags tell the direction and shape of the fitted curve.
SMILES,Potency,"activity change, negative = inhibition"
COc1ccc(-c2cc(C(F)(F)F)nc(S(=O)(=O)CCCC(=O)Nc3cccc(O)c3)n2)cc1OC,"inconclusive [inhibitor, partial curve]",
COc1ccccc1N1CCN(C(=S)Nc2ccccc2)CC1,inactive,
Cc1cccc(Nc2nc3ccccc3n3nnnc23)c1,"inconclusive [inhibitor, single point]",
CC(Sc1nn(-c2ccc(F)cc2)c(=S)s1)C(=O)c1c(N)n(C)c(=O)n(C)c1=O (stereo unspecified),"inconclusive [inhibitor, single point]",
CN(CC(=O)Nc1cccc(F)c1)CC(=O)Nc1cccc(S(=O)(=O)N2CCCCCC2)c1,"inconclusive [inhibitor, single point]",
CCOC(=O)N1CCN(S(=O)(=O)c2ccc(OC)c(Cl)c2Cl)CC1,"inconclusive [inhibitor, single point]",
COC(=O)C1=CN(Cc2ccc(OC)cc2)C=C(C(=O)OC)C1c1ccsc1,active: 7.38 µM,
COc1ccccc1CC(=O)N(Cc1ccccc1)c1ccc(C)cc1,"inconclusive [inhibitor, partial curve]",
CCn1cc(C(=O)NCc2ccco2)c(=O)c2ccc(C)nc21,inactive,
CCCCN(C(=O)CSc1nnc(-c2ccco2)o1)c1c(N)n(Cc2ccccc2)c(=O)[nH]c1=O,"inconclusive [inhibitor, full curve, poor fit]",
COc1ccc(CNC(=O)/C=C/c2ccc(S(=O)(=O)N3CCOCC3)cc2)cc1,"inconclusive [inhibitor, partial curve, poor fit]",
CCOc1ccc(NC(=O)N2CCN(c3nc4ccccc4s3)CC2)cc1,"inconclusive [inhibitor, single point]",
CCOCCn1c(CN2CCc3ccccc3C2)nc2c1c(=O)n(C)c(=O)n2C,"inconclusive [inhibitor, partial curve, poor fit]",
Cc1cccc2sc(NNC(=O)c3ccc(S(=O)(=O)N4CC(C)CC(C)C4)cc3)nc12 (stereo unspecified),"inconclusive [inhibitor, full curve]",
C=CCn1c(C)cc(C(=O)Cn2c(C(C)O)nc3ccccc32)c1C (stereo unspecified),"inconclusive [inhibitor, single point]",
O=C(O)CSCC(=O)N1CCc2c([nH]c3ccccc23)C1C(F)(F)F (stereo unspecified),,inactive: 15.9% [at 0.00184 µM]
Cc1nc(-c2ccc(F)cc2)c(CC(=O)N(C)CC(=O)Nc2ccc(Br)cc2C)s1,active: 5.22 µM,
COc1ccccc1CNC(=O)C1CCCN(S(=O)(=O)c2cccs2)C1 (stereo unspecified),inactive,
Cc1cc(C)cc(OCCNC(=O)c2ccc(Br)cc2)c1,"inconclusive [inhibitor, partial curve, poor fit]",
Cc1nc(SCc2ccccc2C)n[nH]1,inactive,
O=c1cc2c(nn1Cc1ccccc1Cl)-c1ccccc1CC2,"inconclusive [inhibitor, single point]",
COC(=O)[C@@H]1C[C@@H]2CC[C@@H](O)C[C@@H]2N1Cc1ccc(Cl)cc1,"inconclusive [inhibitor, single point]",
Cc1ccccc1C(=O)NNC(=O)C1CC(=O)N(Cc2ccccc2)C1 (stereo unspecified),inactive,
CC(=O)c1ccc(-n2nncc2-c2ccc([N+](=O)[O-])cc2)cc1,inactive,

SMILES,Potency,"activity change, negative = inhibition"
CC(=O)c1c(C)[nH]c(C(=O)Nc2ccc(Cl)cc2)c1C,"inconclusive [inhibitor, single point]",
COc1ccc(Nc2cccc(Cl)c2)c(C(=O)O)c1,inactive,
CCc1ccccc1-n1c(SCC(=O)Nc2ccc3c(c2)OCCO3)nc2[nH]ncc2c1=O,inactive,
CC(=O)/C(N=Nc1cc(C)ccc1O)=C(\C)O,"inconclusive [inhibitor, single point]",
O=C(Cn1cnc2sc3c(c2c1=O)CCCC3)NCC(=O)Nc1ccc(F)cc1F,inactive,
CCC(=O)NC(=S)Nc1ccc(NC(=O)COc2ccc(Cl)cc2Cl)cc1,"inconclusive [inhibitor, single point]",
Cc1onc(-c2c(F)cccc2Cl)c1C(=O)Nc1nnc(C2CC2)s1,"inconclusive [inhibitor, single point]",
O=C(CCCOc1ccc(Cl)cc1Cl)N/N=C\C1CCCCC1,"inconclusive [inhibitor, single point]",
Clc1ccccc1-c1ncc(-c2ccccc2)o1,inactive,
O=C(CSc1nnc(COc2ccccc2Cl)o1)NC(=O)NC1CCCC1,inactive,
O=C(CNC1CCCCC1)Nc1ccc(Cl)cc1,inactive,
CCCN(CC(=O)Nc1ccccc1C)C(=O)c1ccc(N2CCCCCC2)c([N+](=O)[O-])c1,"inconclusive [inhibitor, partial curve, poor fit]",
Cc1ccccc1-c1nc(CN2CCC(C(=O)NCCC3=CCCCC3)CC2)c(C)o1,"inconclusive [inhibitor, partial curve, poor fit]",
Cc1cccc(NC(=S)NCc2ccccn2)c1,inactive,
COc1ccc(C(O)P(=O)(OC2CCCCC2)c2ccc(N(C)C)cc2)cc1OC (stereo unspecified),"inconclusive [inhibitor, single point]",
O=C(/C=C/c1ccc(F)cc1)N1CCCc2ccccc21,inactive,
COc1ccc(NC2c3ccccc3C(=O)N2Cc2ccc3c(c2)OCO3)cc1 (stereo unspecified),"inconclusive [inhibitor, partial curve]",
Cn1c(=O)c2c(nc(NCCO)n2CCc2ccccc2)n(C)c1=O,inactive,
Cc1ccc(S(=O)(=O)c2cnc(-c3ccccc3)nc2N2CCCCC2)cc1,active: 13.1 µM,
COc1ccc(C(=O)Nc2ccc(S(=O)(=O)NC(C)(C)C)cc2)cc1[N+](=O)[O-],"inconclusive [inhibitor, partial curve]",
COc1ccccc1CNC(=O)c1nccnc1CO,inactive,
Cc1nc2cc(C(=O)N3c4ccccc4CC3C)ccc2s1 (stereo unspecified),"inconclusive [inhibitor, single point]",
CC(C)C[C@H](CO)Nc1nc(Nc2cccc(Cl)c2)c2ncn(C(C)C)c2n1,"inconclusive [inhibitor, single point]",
Cc1ccc(S(=O)(=O)CCC(=O)OCc2nc(N)nc(Nc3ccccc3C)n2)cc1,"inconclusive [inhibitor, single point]",

SMILES,Potency,"activity change, negative = inhibition"
COc1ccc(C)cc1NC(=O)CN1CCN(c2ccccc2F)CC1,active: 13.1 µM,
Cn1nc(-c2ccc(Cl)cc2)cc1NC(=O)CCCC(=O)O,inactive,
COc1cc2c(C(=O)Nc3ccccc3F)cn(C)c(=O)c2cc1OC,,inactive: -17.2% [at 0.00184 µM]
O=C(CSc1nnnn1C1CCCCC1)N1c2ccccc2Sc2ccccc21,"inconclusive [inhibitor, partial curve, poor fit]",
COc1ccc(-c2ccc(-c3noc(-c4ccco4)n3)c(OC)n2)cc1,inactive,
C=CCOC(=O)/C(=C\c1ccccc1)NC(=O)c1ccc(C)cc1,inactive,
COc1ccccc1N(C)S(=O)(=O)c1ccc(C(=O)OCC(=O)c2c[nH]c3ccccc23)cc1,"inconclusive [inhibitor, single point]",
COC(=O)c1cc2sccc2n1CC(=O)Nc1ccc(OC)c(OC)c1OC,active: 2.08 µM,
COC(=O)/C(C#N)=C/c1c(N2CCN(c3ccccc3)CC2)nc2ccccn2c1=O,"inconclusive [inhibitor, single point]",
O=C(Nc1ccc(F)cc1)Nc1ccc(N2CCCC2)c(S(=O)(=O)Nc2ccccc2Cl)c1,active: 9.28 µM,
CCn1c(CCNC(=O)c2ccccc2Cl)n[nH]c1=S,"inconclusive [inhibitor, partial curve, poor fit]",
Cc1ccc2c(c1)N(CC(=O)NCc1ccco1)C(=O)C(C(C)C)O2 (stereo unspecified),"inconclusive [inhibitor, single point]",
Cc1c(C(=O)N2CCOCC2)cc(C(C)(C)C)n1-c1ccccc1,active: 9.28 µM,
O=[N+]([O-])c1ccc(N2CCNCC2)cc1Sc1nc2ccccc2[nH]1,"inconclusive [inhibitor, single point]",
CCOC(=O)c1ccc(NC(=O)N2CCN(C(=O)c3ccco3)CC2)cc1,"inconclusive [inhibitor, partial curve]",
CC(NC(=O)Cn1cc(C(F)(F)F)ccc1=O)c1ccc(F)cc1 (stereo unspecified),"inconclusive [inhibitor, single point]",
COc1ccc(CCNC(=O)CSc2nc(O)cc(=O)[nH]2)cc1OC,active: 3.29 µM,
COc1cc(OC)c(C(=O)NC2CCCc3ccccc32)cc1OC (stereo unspecified),inactive,
c1cnc(-c2noc(CN3CCN(C4CCCC4)CC3)n2)cn1,inactive,
COc1ccc(OC(=O)c2cccc(S(=O)(=O)N3CC(C)OC(C)C3)c2)cc1 (stereo unspecified),"inconclusive [inhibitor, single point]",
COC(=O)Cc1c(C)c2cc(Cl)c(OC(=O)c3ccco3)cc2oc1=O,"inconclusive [inhibitor, partial curve]",
CCOC(=O)O[C@]1(C(=O)COC(=O)CC)CC[C@H]2[C@@H]3CCC4=CC(=O)C=C[C@]4(C)[C@H]3[C@@H](O)C[C@@]21C,"inconclusive [inhibitor, partial curve, poor fit]",
O=C(CCCn1c(SCc2ccccc2F)nc2ccccc2c1=O)NCC1CCCO1 (stereo unspecified),active: 6.57 µM,
